According to the RNAGym collection of RNA variant scans (doi:10.1073/pnas.2313332121):
This sample is rich in variants without activity.

B1: TPR 5TU (parent)
chain: GGAUCUUCUCGAUCUAACAAAAAAGACAAAUCUGCCACAAAGCUUGAGAGCAUCUUCGGAUGCAGAGGCGGCAGCCUUCGGUGGCGCGAUAGCGCCAACGUUCUCAACUAUGACACGCAAAACGCGUGCUCCGUUGAAUGGAGUUUAUCAUG

Variants of: B1
Assay: polymerase ribozyme fitness, log enrichment relative to wild type (log ratio); higher = more active; in vitro selection for triplet polymerase activity
In short: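 Streptavidin-bead capture of gel-excised extended constructs, followed by RT-PCR, closed a single triplicate in vitro selection round. That round began by annealing PCR-built, transcribed mutant libraries of each subunit of a heterodimeric triplet polymerase ribozyme with a biotinylated primer, the partner subunit and triplets, then incubating them frozen at −7 °C. After Illumina sequencing of inputs and outputs, genotypes needed ≥10 input reads and ≥1 read per output. Fitness is the base-2 logarithm of genotype enrichment over wild-type enrichment, using inverse-variance-weighted replicate averages.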
For G59A C125A, the “polymerase ribozyme fitness (log ratio)” value was 0.12. With C57G G88C U102G G143A the “polymerase ribozyme fitness (log ratio)” value was no more than -4.2. In the case of C57G C114U, the “polymerase ribozyme fitness (log ratio)” value is reported as -1.83. In the case of G59C A73G G86U, the “polymerase ribozyme fitness (log ratio)” value is reported as -2.26. In the case of G58A C96A A97G A106C A119U, the “polymerase ribozyme fitness (log ratio)” value is reported as -1.42. For G58U G67C C72U A73U C99U, the “polymerase ribozyme fitness (log ratio)” value was no more than -4.2. In the case of G59A A60C G80U A147C, the “polymerase ribozyme fitness (log ratio)” value is reported as no more than -4.2. In the case of C57G C85G, the “polymerase ribozyme fitness (log ratio)” value is reported as -1.95. For C57U G92A U104C U135C, the “polymerase ribozyme fitness (log ratio)” value was no more than -4.2. In the case of G59C A64G C87A A115U U127G, the “polymerase ribozyme fitness (log ratio)” value is reported as no more than -4.2. In the case of G58A A91U, the “polymerase ribozyme fitness (log ratio)” value is reported as no more than -4.2. For C57U U61A C76G G92A, the “polymerase ribozyme fitness (log ratio)” value was no more than -4.2. For G59A C95U C103G, the “polymerase ribozyme fitness (log ratio)” value was -2.47. In the case of G58U U61C G88A U127C C131G, the “polymerase ribozyme fitness (log ratio)” value is reported as no more than -4.2. For G58C C75G C76G C85U, the “polymerase ribozyme fitness (log ratio)” value was no more than -4.2. For G58C U61C G86C C95U U144A, the “polymerase ribozyme fitness (log ratio)” value was no more than -4.2. In the case of G58U A142C, the “polymerase ribozyme fitness (log ratio)” value is reported as -0.408. In the case of G58A A89U C96A A115G, the “polymerase ribozyme fitness (log ratio)” value is reported as -1.15. With G58C C72U A98G the “polymerase ribozyme fitness (log ratio)” value was 0.461. In the case of G58C G68C C85A U102C A121G U127C, the “polymerase ribozyme fitness (log ratio)” value is reported as no more than -4.2. In the case of G58C A119C, the “polymerase ribozyme fitness (log ratio)” value is reported as -0.0646. With G58U C95A C149U the “polymerase ribozyme fitness (log ratio)” value was -0.828. For G58C A91U C125A, the “polymerase ribozyme fitness (log ratio)” value was no more than -4.2. With G59A G68C C75G G83C A91C C114A A147C the “polymerase ribozyme fitness (log ratio)” value was no more than -4.2. For G59A C72A U135A G143C, the “polymerase ribozyme fitness (log ratio)” value was no more than -4.2. In the case of C57U C93U A115C A142C A147U, the “polymerase ribozyme fitness (log ratio)” value is reported as no more than -4.2. In the case of G58A U101G C132G G133C A142C, the “polymerase ribozyme fitness (log ratio)” value is reported as -3.72. With C57U A91U U102G G152U the “polymerase ribozyme fitness (log ratio)” value was -3.9. With G59A G62C C108U the “polymerase ribozyme fitness (log ratio)” value was no more than -4.2. For G59A C123A, the “polymerase ribozyme fitness (log ratio)” value was -0.0504. In the case of G58C G83C G84A C93A C118A U135G, the “polymerase ribozyme fitness (log ratio)” value is reported as no more than -4.2. For G59C A73U G136A A137C U148A, the “polymerase ribozyme fitness (log ratio)” value was no more than -4.2. For C57U A64C C96U, the “polymerase ribozyme fitness (log ratio)” value was no more than -4.2. In the case of G58C C87U C95U C114A G143A, the “polymerase ribozyme fitness (log ratio)” value is reported as no more than -4.2. In the case of C57U U82A C85G A97C G126U, the “polymerase ribozyme fitness (log ratio)” value is reported as no more than -4.2. For C57U C95A U109G, the “polymerase ribozyme fitness (log ratio)” value was -0.696. With G59C A89U C96G A107G the “polymerase ribozyme fitness (log ratio)” value was no more than -4.2. In the case of G58A U90A C125G, the “polymerase ribozyme fitness (log ratio)” value is reported as no more than -4.2. For C57G G88U G94A, the “polymerase ribozyme fitness (log ratio)” value was no more than -4.2. In the case of C57U G70U A97U, the “polymerase ribozyme fitness (log ratio)” value is reported as no more than -4.2. In the case of C57U C72G G80U C87A, the “polymerase ribozyme fitness (log ratio)” value is reported as no more than -4.2. In the case of G58U C95U, the “polymerase ribozyme fitness (log ratio)” value is reported as -0.414. In the case of C57U G58U C69U G71A U78G U144A U151A, the “polymerase ribozyme fitness (log ratio)” value is reported as no more than -4.2. For G58C G143A, the “polymerase ribozyme fitness (log ratio)” value was -0.724. With G59C A64C the “polymerase ribozyme fitness (log ratio)” value was no more than -4.2. With C57U G62A G67C G74A G124A the “polymerase ribozyme fitness (log ratio)” value was no more than -4.2. In the case of C57U A73C G86U C99U G143C, the “polymerase ribozyme fitness (log ratio)” value is reported as no more than -4.2. With C57U C85U U102A C114A the “polymerase ribozyme fitness (log ratio)” value was -3.9. For G58C U82G C132A, the “polymerase ribozyme fitness (log ratio)” value was -2.83. For G59A A110U, the “polymerase ribozyme fitness (log ratio)” value was -3.64. For G58U A150C, the “polymerase ribozyme fitness (log ratio)” value was -3.57. With G59A A60G C99G A107C the “polymerase ribozyme fitness (log ratio)” value was no more than -4.2. In the case of C57G C93G, the “polymerase ribozyme fitness (log ratio)” value is reported as -4.06. With G58C A107C the “polymerase ribozyme fitness (log ratio)” value was -4.06. For G59A C85G G126U, the “polymerase ribozyme fitness (log ratio)” value was -2.21. In the case of C57U G94A, the “polymerase ribozyme fitness (log ratio)” value is reported as -0.629. For C57U C69G G84A C85G, the “polymerase ribozyme fitness (log ratio)” value was no more than -4.2. In the case of G59A A60C, the “polymerase ribozyme fitness (log ratio)” value is reported as -1.48. With C57G U61A C87U A89U C116U C118G A122G U139A the “polymerase ribozyme fitness (log ratio)” value was no more than -4.2. With G58C G83C G117C the “polymerase ribozyme fitness (log ratio)” value was -0.409. With G58C C85A the “polymerase ribozyme fitness (log ratio)” value was -3.71. In the case of G58C C79G A107G, the “polymerase ribozyme fitness (log ratio)” value is reported as no more than -4.2. For G58A G86C G94A C95G A106G A107G A122G, the “polymerase ribozyme fitness (log ratio)” value was no more than -4.2. In the case of G59A G67A G86C C96G G140U U144C A147U, the “polymerase ribozyme fitness (log ratio)” value is reported as no more than -4.2. In the case of C57U G88U, the “polymerase ribozyme fitness (log ratio)” value is reported as no more than -4.2. For G58U U77G G80A U82C C85U U90A A110C, the “polymerase ribozyme fitness (log ratio)” value was no more than -4.2. With G59A G84U U104G A122G U134A the “polymerase ribozyme fitness (log ratio)” value was no more than -4.2. With G58C G62C C95G the “polymerase ribozyme fitness (log ratio)” value was -3.72. For G59A G74A A91G C118G, the “polymerase ribozyme fitness (log ratio)” value was no more than -4.2. For C57G U61A G70C C95U A107C U134A, the “polymerase ribozyme fitness (log ratio)” value was no more than -4.2. With C57U C76G A142C the “polymerase ribozyme fitness (log ratio)” value was no more than -4.2. With G58C G70C C87A the “polymerase ribozyme fitness (log ratio)” value was no more than -4.2. For G59A G80C, the “polymerase ribozyme fitness (log ratio)” value was no more than -4.2. With G58C A122U A142G G143A the “polymerase ribozyme fitness (log ratio)” value was -4.05. In the case of G59C A60U G68A U77G G94C A110U A147G, the “polymerase ribozyme fitness (log ratio)” value is reported as no more than -4.2. In the case of G58C U111G C116A A137C, the “polymerase ribozyme fitness (log ratio)” value is reported as no more than -4.2. For C57U G84U G126C, the “polymerase ribozyme fitness (log ratio)” value was -0.969. With C57U A66G G71U C85U C95U A113C the “polymerase ribozyme fitness (log ratio)” value was no more than -4.2. With C57U C79A C85U C93G C96U the “polymerase ribozyme fitness (log ratio)” value was no more than -4.2. For G58C A107C A150U, the “polymerase ribozyme fitness (log ratio)” value was no more than -4.2. In the case of G58A C99U, the “polymerase ribozyme fitness (log ratio)” value is reported as -0.207. For G58A A66C G74C C131G G136U, the “polymerase ribozyme fitness (log ratio)” value was no more than -4.2. For G59A G74U C93G C96U, the “polymerase ribozyme fitness (log ratio)” value was no more than -4.2.
